This passage reports binding signal results from article PMC12136788.

The list shows a part of the results.

The chains are these.
T1: UNK ZnF1-3 (human, UniProt Q9C0B0 31-174)
T1 sequence: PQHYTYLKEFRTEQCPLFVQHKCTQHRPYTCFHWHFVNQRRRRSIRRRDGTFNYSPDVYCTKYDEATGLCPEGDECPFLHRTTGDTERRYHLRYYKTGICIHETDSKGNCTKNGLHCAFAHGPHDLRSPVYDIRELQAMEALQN

B1: chr7:99638656:99638657:+_ENSG00000106261_ENST00000324306|hu_hu|motif|central (ssRNA)
RNA: GGGAGUUCUACAGUCCGACGAUCAGCCCUCUAUAUAGAUUUAGGCUUAUGCUGACCUCGUUGUAAAAUCUGUAUUUAACGGAAAGUUAAUAAAAAUACAUAUGUUCAUUUUAAAAUAAUUACUGAUUUUGCUUGGCUAUCCCACAACAGAGGAUUGAGCAUCA
B2: chr15:55677894:55677895:-_ENSG00000260916_ENST00000569205|hu_mus|FALSE|FALSE (ssRNA)
RNA: GGGAGUUCUACAGUCCGACGAUCGGAACAUUCUAGAGUCAGUCCACAGUUGUCACUGGCUGUGGCAGAAUUCACGAUCUCUAUAUCAGAACCCUCAUGAUUGAUGACAGUCCAGCCACAAGAUGAGUCGCUGUCGCUGGAACUCAACAGAGGAUUGAGCAUCA
B3: chr1:66459500:66459501:+_ENSMUSG00000015222_ENSMUST00000114013|mus_hu|FALSE|FALSE (ssRNA)
RNA: GGGAGUUCUACAGUCCGACGAUCUAAAAAGGCAGGGGCAAAGGGCGAUGUUUCUGUAACUAUUUCAUUCUUCAUGACAUCUAAAGGAAGAGUGAAGCUUCCCCCUUGAAAGGGACUUGGCAUGGGAGAAUCAAACUGUUUCCCCAACAGAGGAUUGAGCAUCA
B4: chr1:109605286:109605287:-_ENSG00000197780_ENST00000461096|hu_mus|hu_hu_hu_mus_True|1_8 (ssRNA)
RNA: GGGAGUUCUACAGUCCGACGAUCAAGUUUCAGAGUAACAUUCAGUAACCUCUUUAAAUGCAAUUAUCCUUAUUAUAAGCUAAGCAGAAUAAUAAUUUAAUACCGUAAGUGAACUACACACAAAGCCGUGUAUUCAGAACUACACAACAGAGGAUUGAGCAUCA
B5: chr4:148551591:148551592:-_ENSMUSG00000063077_ENSMUST00000060537|mus_hu|mus_mus_mus_hu_False|28_108 (ssRNA)
RNA: GGGAGUUCUACAGUCCGACGAUCACCUUACAAAAUUAAAUAUCCCUGUAAAUUAGACAAUAAGCAGCAGGCAACAAAGUCUUUGCUUUGGAAUAUGUGCCAGGAAAAAUCAUGUUUUUUUUAGAUCUCAAGAGACAGUUCACACAACAGAGGAUUGAGCAUCA
B6: chr2:121837063:121837064:+_ENSMUSG00000033411_ENSMUST00000110578|mus_mus|motif|central (ssRNA)
RNA: GGGAGUUCUACAGUCCGACGAUCAUAUUAGUCAUUCAUAUAUUCUUAACUACCCAGUCUCUUGAUUUUUGAAGAUUUCACCGGCAGUAGAAUAUUACAGAACAAAAUAUAAAUGCAUCUUUUAAAUGAAACUUAACAUGGACUCAACAGAGGAUUGAGCAUCA
B7: chr14:72968675:72968676:-_ENSMUSG00000033487_ENSMUST00000089017|mus_mus|FALSE|FALSE (ssRNA)
RNA: GGGAGUUCUACAGUCCGACGAUCGUACAGGACCUCUUCACUAAAAUCACUUACACCAUAGUCAUUUUUGGCUGAUAAUCUAAAUUUACAACCCAUUGCUGGUGAGAGUUUGGUAAUUUUAAAUUGCUUCUGUGAGCCCAUGUACAACAGAGGAUUGAGCAUCA
B8: chr7:7679991:7679992:-_ENSG00000106399_ENST00000396682|hu_hu|hu_hu_hu_mus_False|78_98 (ssRNA)
RNA: GGGAGUUCUACAGUCCGACGAUCUGGGAUGAAUCUUUUCCAGCCUCCCCACGAAGCAGACAGGCUUGUCGAUAUACUGUGGUAACAUGCUGGCGUUGACGCGCGCUUUGGGGAGCUGCAUUAUGUCCUCCAUGAUUCUGCCGCCAACAGAGGAUUGAGCAUCA
B9: chr5:37310712:37310713:-_ENSG00000113569_ENST00000381843|hu_mus|FALSE|FALSE (ssRNA)
RNA: GGGAGUUCUACAGUCCGACGAUCACAAACUGCAUCGUCUGUGCUAUACAGAAGCGGACAGGUGUCCUGCAGAUGUAAGCUAAUGCCGUCUACGGCGGCGUUGUCUCUGAUGUAGCAGUUGAUAAGAGAAGCAAUUAAUGCUCCCAACAGAGGAUUGAGCAUCA
B10: chr2:202488911:202488912:-_ENSG00000155755_ENST00000286196|hu_mus|hu_hu_hu_mus_False|28_38 (ssRNA)
RNA: GGGAGUUCUACAGUCCGACGAUCAUUGAAACAUUUUUCAUAAUCUCCAGUAGCAUUUCAGCAUUAUGUAACAAAAGCUCAAUUGUAAAUACAUGUAUAUACAUCUUAUAAAAAUACAAACACGAGUGGGGAGCGCAGGCGCCACAACAGAGGAUUGAGCAUCA
B11: chr7:135612270:135612271:-_ENSG00000105887_ENST00000393085|hu_mus|hu_hu_hu_mus_False|48_108 (ssRNA)
RNA: GGGAGUUCUACAGUCCGACGAUCGUUUCUGAGAUGUAUGUUAAAUAGUACUUCAGUGGAAAACAAAACUUAACCUUUUAUUAAUGCAUGUAGUACCAAAAGCAGACAUUUUAGCUUCAUUUAUUCAAAAAUAUUAACAUUAAGCAACAGAGGAUUGAGCAUCA
B12: chr2:32088997:32088998:+_ENSMUSG00000039262_ENSMUST00000036691|mus_hu|FALSE|FALSE (ssRNA)
RNA: GGGAGUUCUACAGUCCGACGAUCUUUUCCCCCUUAAGGAACCUAGAGCCAGAGUGUCUAUGAAUUCCAAGUUUGAAAACAAUAUGAAUGUUUAAAAAAAAACAAAAAACGCUGUGGGGAGAAGCCAACAGUUAAGAAAACCAACAACAGAGGAUUGAGCAUCA
B13: chr2:202488911:202488912:-_ENSG00000155755_ENST00000286196|hu_mus|hu_hu_hu_mus_False|38_78 (ssRNA)
RNA: GGGAGUUCUACAGUCCGACGAUCAUUGAAACAUUUUUCAUAAUCUCCAGUAGCAUUCAGUAUUAUAGUAACAAAAGCUCAAUUGUAAAUACAUGUAUAUACAUCUUAUACACUUAAAAACACGAGUGGGGAGCGCAGGCGCCACAACAGAGGAUUGAGCAUCA
B14: chr1:149898447:149898448:-_ENSG00000143368_ENST00000271628|hu_mus|FALSE|FALSE (ssRNA)
RNA: GGGAGUUCUACAGUCCGACGAUCGAGUCUUUCAGCUGCUGAGCCAUGGCGUUCACCCUUAGAGUCCUUCUUGAAGGCAUAAGACACAGUGAUAGGACGGUUACACAGGUACUGCCCGUUCAUGGCCUCAAUUGCUGCAUCCGACAACAGAGGAUUGAGCAUCA

This experiment deals with T1, UNK ZnF1-3. As to the kind of experiment: nsRBNS (natural sequence RNA bind-n-seq); RBNS binding buffer (assumed for nsRBNS): 25 mM Tris pH 7.5, 150 mM KCl, 3 mM MgCl2, 0.01% Triton X-100, 500 ug/ml BSA, 20 U/ml SUPERase-In, 4 C; UNK is unkempt and MSI1 is Musashi-1; names of the RNAs are library labels; protein concentration not given here; high values mean tight binding.
B1 registered a binding signal of 2.47 enrichment R.
For B2 the value was 0.561 enrichment R.
In the case of B3, the binding signal is 0.754 enrichment R.
In turn, B4 came in with a binding signal of 0.426 enrichment R.
Consider B5, for which the binding signal was 1.18 enrichment R.
Regarding B6, the binding signal came out at 0.615 enrichment R.
Consider B7, for which the binding signal stood at 0.984 enrichment R.
B8 had a binding signal of 0.674 enrichment R.
The molecule B9 showed a binding signal of 0.48 enrichment R.
Take B10: the binding signal was 1.11 enrichment R.
Consider B11, for which the binding signal came out at 1.07 enrichment R.
Turning to B12, the binding signal was 1.79 enrichment R.
In turn, B13 yielded a binding signal of 1.27 enrichment R.
B14 registered a binding signal of 0.555 enrichment R.
